These are yes or no findings as the source states them, for the method shown. In cells and extracts the contact can be indirect. Some results given as binding are weak or reduced against the parent protein; the word gives no strength. For some assays here: Sequences can lack the tags named with a protein.
Tests used:
[1] = target: WASP15-His fusion protein (UniProt P70315); assay: pull-down; WASP15-His or GST-His fusion protein incubated overnight at 4°C with RIPA lysates of wild-type or WASP15 Tg BMDMs, without or with LPS (10 µg/mL, 5 h); complexes taken up by the His tag (anti-His tag Ab, His Tagged Protein Purification Kit); blot with anti-Btk or anti-Grb2; only the target purified
[2] = target: WASP-interacting protein (WIP) (mouse (endogenous in BMDM)) (UniProt Q8K1I7); assay: co-IP; RIPA lysates of wild-type or WASP15 Tg BMDMs immunoprecipitated with anti-WIP pAb; blot with anti-WASP mAb, anti-Btk mAb, anti-WIP
[3] = target: T1, GST-Btk-SH3 fusion protein (UniProt P35991); assay: pull-down; GST or GST-Btk-SH3 bound to glutathione sepharose beads, incubated overnight at 4°C with precleared RIPA lysates of wild-type or WASP15 Tg BMDMs; beads washed with PBS; blot with anti-WASP mAb; only the target purified
T1 sequence: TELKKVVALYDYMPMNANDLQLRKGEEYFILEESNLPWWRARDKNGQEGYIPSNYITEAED

Chains of the proteins cited; added tags and fusions are not shown. Lines headed by an entry give the natural chain unless they say otherwise; changes in a name come on top.
UniProt P70315: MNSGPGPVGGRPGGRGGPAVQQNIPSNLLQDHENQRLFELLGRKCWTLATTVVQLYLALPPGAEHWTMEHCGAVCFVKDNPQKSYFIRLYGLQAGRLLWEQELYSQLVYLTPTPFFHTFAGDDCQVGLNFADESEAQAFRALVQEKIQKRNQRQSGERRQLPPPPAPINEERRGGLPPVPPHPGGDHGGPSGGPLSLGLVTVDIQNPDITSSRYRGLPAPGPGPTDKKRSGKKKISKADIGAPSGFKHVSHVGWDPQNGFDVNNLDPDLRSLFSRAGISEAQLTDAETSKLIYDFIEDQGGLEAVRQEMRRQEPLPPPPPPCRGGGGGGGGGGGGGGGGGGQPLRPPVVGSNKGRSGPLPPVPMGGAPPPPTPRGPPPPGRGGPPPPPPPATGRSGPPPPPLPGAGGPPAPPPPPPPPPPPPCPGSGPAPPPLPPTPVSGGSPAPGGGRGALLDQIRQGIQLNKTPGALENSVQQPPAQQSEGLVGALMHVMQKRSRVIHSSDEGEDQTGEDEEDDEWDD
UniProt Q8K1I7: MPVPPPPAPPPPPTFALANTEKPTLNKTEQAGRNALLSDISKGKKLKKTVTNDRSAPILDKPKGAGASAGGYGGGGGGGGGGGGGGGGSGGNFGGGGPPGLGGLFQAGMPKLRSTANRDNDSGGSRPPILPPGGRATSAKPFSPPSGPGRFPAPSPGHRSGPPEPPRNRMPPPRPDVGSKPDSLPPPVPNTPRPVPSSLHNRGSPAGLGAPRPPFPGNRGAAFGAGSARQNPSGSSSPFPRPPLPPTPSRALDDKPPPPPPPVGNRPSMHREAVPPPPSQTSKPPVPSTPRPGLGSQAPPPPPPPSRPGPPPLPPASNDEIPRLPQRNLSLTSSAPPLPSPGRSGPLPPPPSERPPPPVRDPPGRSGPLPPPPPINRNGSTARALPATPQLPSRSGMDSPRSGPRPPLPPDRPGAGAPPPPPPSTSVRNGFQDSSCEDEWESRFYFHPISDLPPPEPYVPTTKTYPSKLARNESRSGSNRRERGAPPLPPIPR
UniProt Q60631: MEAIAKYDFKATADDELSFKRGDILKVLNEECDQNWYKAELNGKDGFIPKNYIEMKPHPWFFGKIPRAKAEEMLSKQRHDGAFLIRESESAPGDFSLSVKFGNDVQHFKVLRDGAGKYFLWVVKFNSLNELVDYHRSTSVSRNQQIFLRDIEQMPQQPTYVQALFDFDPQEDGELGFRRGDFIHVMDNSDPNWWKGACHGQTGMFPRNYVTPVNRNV

[4] = target: Bruton's tyrosine kinase (Btk) (mouse (endogenous in BMDM)) (UniProt P35991); assay: co-IP; RIPA lysates of wild-type or WASP15 Tg BMDMs immunoprecipitated with anti-Btk mAb; blot with anti-WASP pAb, anti-T7 tag pAb, anti-Btk pAb

| binding [1] | binding [2] | binding [3] | binding [4] | Substance |
| --- | --- | --- | --- | --- |
| binds |  |  |  | Bruton's tyrosine kinase (Btk) (from UniProt P35991 1-659) |
| no binding |  |  |  | Growth factor receptor-bound protein 2 (Grb2) (from UniProt Q60631 1-217) |
|  | binds | binds | binds | Wiskott-Aldrich syndrome protein (WASP), endogenous (from UniProt P70315 1-520) |
|  | binds | binds | binds | truncated WASP (WASP15) overexpressed in WASP15 Tg BMDMs (from UniProt P70315 1-171) (domain or fragment) |

Reference: PMC3257260
